The source of these data is PMC6919601, “Identification of Plasmodium dipeptidyl aminopeptidase allosteric inhibitors by high throughput screening” (PLoS ONE, 2019).

In all, about 110,000 compounds went through this assay and about 230 (0.21%) showed an effect of 50% or more. The list shows a part of the results.
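Also: 30 min substrate incubation versus DMSO and 10 µM JCP410 controls.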

The target of the test is DPAP1 (Plasmodium falciparum, UniProt Q8IIJ9). The test can be described thus: primary screen, percent inhibition; read by cleavage of a fluorogenic dipeptide substrate; higher = more effect of the substance. On the set-up: species or system P. falciparum D10 trophozoite lysates; single well.
Sequence of DPAP1 (Q8IIJ9 whole entry, looked up): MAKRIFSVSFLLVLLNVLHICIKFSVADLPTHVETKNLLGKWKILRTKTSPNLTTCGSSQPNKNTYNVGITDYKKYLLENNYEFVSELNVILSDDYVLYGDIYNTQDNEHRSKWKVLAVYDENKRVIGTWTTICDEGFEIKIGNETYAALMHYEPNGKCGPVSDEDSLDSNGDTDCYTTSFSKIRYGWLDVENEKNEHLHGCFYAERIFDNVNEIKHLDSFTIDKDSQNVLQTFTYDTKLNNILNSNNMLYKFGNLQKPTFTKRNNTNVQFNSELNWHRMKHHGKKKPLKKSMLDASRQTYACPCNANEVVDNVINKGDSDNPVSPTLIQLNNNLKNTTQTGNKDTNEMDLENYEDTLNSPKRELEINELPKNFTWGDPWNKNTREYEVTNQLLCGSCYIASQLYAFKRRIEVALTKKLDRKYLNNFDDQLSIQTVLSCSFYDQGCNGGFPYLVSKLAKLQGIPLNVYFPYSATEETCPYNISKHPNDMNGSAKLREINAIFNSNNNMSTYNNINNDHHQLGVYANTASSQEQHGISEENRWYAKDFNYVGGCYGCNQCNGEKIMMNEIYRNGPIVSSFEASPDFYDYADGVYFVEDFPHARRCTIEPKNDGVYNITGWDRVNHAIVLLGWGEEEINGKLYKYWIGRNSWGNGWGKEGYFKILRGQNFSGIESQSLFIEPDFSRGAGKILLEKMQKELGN
With `COc1ccc(S(=O)(=O)Nc2ccc(S(=O)(=O)N3CCOCC3)cc2)cc1C`, the “% Inhibition @ 10 uM” value came out at 6.57%.
Under `CCN(CC)C(=O)/C(=C/c1cn(S(=O)(=O)N(C)C)c2ccccc12)NC(=O)c1ccccc1` stands 7.77%; under `CC1=C(C(=O)Nc2cc(C)ccn2)C(c2ccc3c(c2)OCO3)C2=C(O)CCCC2=N1` (stereo not shown), -6.34%.
`Cc1nc(-c2c(C)[nH]c3ccccc23)cs1`: the “% Inhibition @ 10 uM” value is 13.9%.
Under `Cn1c(=O)c(-c2nc3ccccc3[nH]2)c(O)c2ccccc21` stands 2.92%; under `C=CCn1c(C(C)NC(=O)c2cccc(C)c2)nc2ccccc21` (stereo not shown), -5.77%; under `CC(=O)Nc1nonc1-c1nc2ccccc2n1Cc1cccc(C(F)(F)F)c1`, -1.79%.
Next, `N#Cc1ccc(CSc2ncn(-c3ccccc3)n2)cc1`: 11.1%.
Under `COC(=O)c1cnn2c1NCN(CCc1ccccc1)C2` stands -1.08%; under `CCOC(=O)c1cc2c(=O)n3ccccc3nc2n(C2CCCCC2)/c1=N\C(=O)c1ccco1`, -2.04%.
`COc1ccc(OC)c(-n2nnc(-c3nsc(NC(=O)c4ccc(C)c(C)c4)n3)c2C)c1`: the “% Inhibition @ 10 uM” value is 7.97%.
As for `CCN(CC)c1ccc(/C=C2/C(=O)NC(=S)N(c3ccccc3C)C2=O)cc1`, the “% Inhibition @ 10 uM” value is 5.66%.
On to `CC(C)NS(=O)(=O)c1ccc(OCC(=O)N2CCN(c3ccc(F)cc3)CC2)cc1`, for which the “% Inhibition @ 10 uM” value is given as -4.71%.
Under `O=C(c1c(F)cccc1F)N1CCN(c2cccc(C(F)(F)F)c2)CC1` stands -8.42%; under `CCOc1ccc(CC(=O)Nc2nccs2)cc1OCC`, 5.03%.
Under `Cc1cc(C)n2c(SCCN3C(=O)c4ccccc4C3=O)nnc2n1` stands 0.315%; under `COc1ccc(-c2cc(C)no2)cc1S(=O)(=O)NCc1cccnc1`, -6.86%.
Under `Cc1c(Br)c(C(=O)NC2C3CC4CC(C3)CC2C4)nn1C` (stereo not shown) stands -2.14%.
With `CC(C)CC(NC(=O)C1CCCCC1)C(=O)NC(C)c1ccccc1` (stereo not shown), the “% Inhibition @ 10 uM” value is recorded as -3.27%.
Next, `Cn1c2c(c(=O)n(C)c1=O)C(c1ccccc1)C1=C(O)c3ccccc3C1=N2` (stereo not shown): 0.751%; `O=C(c1ccccc1)N1CCN(CC(O)Cn2c3ccccc3c3ccccc32)CC1` (stereo not shown): 1.96%; `COc1ccc(-c2nc(CS(=O)(=O)CC(=O)NCCCN3CCCC3=O)c(C)o2)cc1`: -11.6%.
In the case of `CN(CCCNC(=O)c1nc(-c2cccc(F)c2)n2c1CCCCC2)Cc1ccccc1`, the “% Inhibition @ 10 uM” value came to 3.22%.
Next, `CCOc1ccccc1CNc1nc[nH]n1`: -1.81%; `Cc1cc(=O)n2nc(NC(C)C(=O)NCc3ccccc3Cl)sc2n1` (stereo not shown): -7.02%.
Under `O=C(O)C1C2C=CC(C2)C1C(=O)NC1CCCC1` (stereo not shown) stands -2.83%.
Next, `COc1cccc(C(=O)Nc2ccc3[nH]c4c(c3c2)CCCC4)c1`: -3.16%.
For `O=S(=O)(Nc1ccccc1)c1cc(S(=O)(=O)c2ccc(Cl)c(S(=O)(=O)Nc3ccccc3)c2)ccc1Cl`, the “% Inhibition @ 10 uM” value is recorded as 3.25%.
`Cc1cc(/C=C2\C(=N)N3N=C(N4CCCC4)SC3=NC2=O)c(C)n1Cc1ccccc1`: the “% Inhibition @ 10 uM” value is reported as 4.88%.
Under `C=CCN1C(=O)N/C(=C/c2ccccc2OCC(=O)Nc2ccc(F)cc2)C1=O` stands 8.13%; under `Cc1n[nH]c(C)c1CCCCCOc1cccc(Cl)c1`, -3.42%; under `CCOC(=O)N1CCN(S(=O)(=O)Cc2ccccc2)CC1`, -1.03%.
Under `CCOc1ccccc1CN1CCc2ccccc2C1` stands -7.5%.
Next, `C=CCn1c(SCC(=O)O)nnc1-c1ccc(OC)c(OC)c1`: -7.65%; `O=C(NCc1ccc(Cl)cc1)C1CCN(S(=O)(=O)c2cc(Cl)ccc2Cl)CC1`: 7%.
`CCCN1CCC(NCC(C)(C)CN(C)C)CC1`: the “% Inhibition @ 10 uM” value was -5.44%.
Next, `O=C(Nc1ccc(NC(=O)C2CC2)cc1)C1CC1`: 2.13%; `CC(C)CC(=O)N1CC(C)N(C(=O)CC(C)C)CC1C` (stereo not shown): -4.59%; `CCCS(=O)(=O)N1CCCC(C(=O)NCCCN2CCC(Cc3ccccc3)CC2)C1` (stereo not shown): -3.58%.
Under `Cc1cccc(Oc2ccc(NC(=O)CCCC(=O)O)cc2)c1` stands 8.4%; under `O=C(Nc1nc2nc(-c3ccccc3)cc(O)n2n1)c1ccccc1F`, -4.91%.
Next, `Cc1ccc(NC(=O)/C=C/C(=O)O)c([N+](=O)[O-])c1`: -1.97%; `CCOc1ccccc1NC(=O)c1ccc(OC(F)F)cc1`: -0.116%.
In the case of `OCCN(/C=N/C1=NN(c2ccccc2)CC1)CCO`, the “% Inhibition @ 10 uM” value is on record as -0.0938%.
Under `CCC(C#CCN1CCCCC1)OC(C)=O` (stereo not shown) stands 0.98%; under `O=C(c1cccc2cccc(O)c12)N1CCCCC1`, -3.14%; under `S=C1NC2(CCCCC2)N=C1c1ccccc1`, 11.4%.
Under `CSc1ccc(CN2CCN(c3ccc(F)cc3)CC2)cc1` stands -0.0404%.
For the compound `Cn1c2c(c(=O)n(C)c1=O)CN(Cc1ccc(F)cc1)CN2`, the “% Inhibition @ 10 uM” value was 0.66%.
Consider `CN(C)CC(C)(C)CNC1CC2CCC1C2` (stereo not shown), for which the “% Inhibition @ 10 uM” value was -2.21%.
Next, `CN(C)CN1C(=O)S/C(=C/c2ccccc2Br)C1=O`: -0.171%; `O=C(Cc1ccccc1)Nc1nn2c(-c3ccccc3)nnc2s1`: 0.522%; `Cc1ccc(C)c(N(CC(=O)Nc2cccnc2)S(C)(=O)=O)c1`: 5.59%.
Next, `CSc1ccc(CN2CCN(CCO)CC2)cc1`: 2.46%; `Cc1c(Cl)cccc1N/C=C(\C#N)C(=O)NC(=O)c1ccccc1`: -1.06%; `COc1cccc(CSc2nc3nccnc3c(=O)n2Cc2ccccc2)c1`: -1.87%.
Next, `Cc1ccc(-c2nc3nc(C)c(Cl)c(C)n3n2)cc1`: -2.4%; `O=C(c1cccc(Cl)c1)N1CCN(Cc2ccccc2)CC1`: 1.13%.
Turning to `COc1ccc(/C(O)=C/C=N/c2cccc3cccnc23)cc1`, the “% Inhibition @ 10 uM” value was determined as 2.46%.
Under `Cn1c(=O)c2c(-c3ccccc3)n(-c3ccccc3N)cc2n(C)c1=O` stands -2.77%.
Turning to `COc1ccc2c(=O)c(-c3ccc4c(c3)OCCO4)c(C)oc2c1`, the “% Inhibition @ 10 uM” value stood at 1.87%.
Next, `Cc1cc(C)n(CNc2nc(C(F)(F)F)cs2)n1`: 3.27%; `CCCC[C@H](NC(=O)[C@H](Cc1ccc2ccccc2c1)NC(=O)c1cccc(CN)c1)C(=O)CO`: -5.64%.
Next, `COc1cccc2cc(-c3nc(-c4ccncc4)no3)c(=O)oc12`: -0.264%; `COCCNC(=O)c1cc(-c2ccc(Br)cc2)nc2ccccc12`: 2.87%; `CCc1ccc(C2c3c(-c4ccccc4O)n[nH]c3C(=O)N2CCO)cc1` (stereo not shown): -1.35%.
Next, `COC(=O)C1=C(O)/C(=C\c2ccc(OC)cc2)N=C1C`: -2.48%; `c1ccc(C2CCC(NCCc3ccccn3)CC2)cc1` (stereo not shown): 3.48%; `CN(C)c1nc(F)c(F)c(S(=O)(=O)c2ccccc2)c1F`: -4.67%.
In the case of `CCCOc1ccc2c(c1)C(=NN=C(N)N)c1cc(OCCC)ccc1-2`, the “% Inhibition @ 10 uM” value is reported as -2.27%.
Next, `CCOc1ccc(C2CC(=O)NC2=O)cc1` (stereo not shown): 0.774%; `C=CCn1c(=N)c(C(=O)OCC)cc2c(=O)n3cc(C)ccc3nc21`: 0.279%.
Next, `COc1cc(C2c3c(-c4ccccc4O)n[nH]c3C(=O)N2Cc2ccco2)cc(OC)c1OC` (stereo not shown): 5.17%.
Under `CCOc1ccc(-c2nnc(NC(=O)C(=O)c3cc(C)n(CCOC)c3C)s2)cc1` stands -1.06%; under `O=C(NCCc1ccsc1)c1cnn(-c2ccc(F)cc2F)c1C1CCNCC1`, -3.45%; under `Cc1[nH]nc2c1C(c1cccc(Cl)c1Cl)C(C#N)=C(N)O2` (stereo not shown), -0.142%.
For `N#Cc1ccc(-c2cccnc2)nc1SCCOC1CCCCO1` (stereo not shown), the “% Inhibition @ 10 uM” value amounted to 0.343%.
Under `CC(C)Cn1c(=O)c2ccccc2n2c(-c3ccc(Cl)cc3)nnc12` stands -3.51%.
Regarding `COc1ccc(CCNC(=O)CSc2cc(Cl)nc3ccc(C)cc23)cc1OC`, the “% Inhibition @ 10 uM” value is 1.08%.
As for `O=C(Cc1ccc(F)cc1F)Nc1ccc(F)cc1`, the “% Inhibition @ 10 uM” value is listed as -0.414%.
In the case of `COc1ccc(-c2cn3c(n2)sc2cc(C(=O)NCc4cccnc4)ccc23)cc1`, the “% Inhibition @ 10 uM” value turned out to be 3%.
Next, `O=C1OC(c2ccccc2)OC(=O)C1=Cc1ccc(-c2cccc(C(=O)O)c2)o1` (stereo not shown): 35%.
Under `Cc1ccc(S(=O)(=O)N2CCN(CC(O)COc3ccc4ccccc4c3)CC2)cc1` (stereo not shown) stands 7.04%; under `O=C(CSc1ncnc2[nH]cnc12)c1ccc(Br)cc1`, 6.79%; under `O=C(NCc1ccccc1)/C(=C/c1ccccc1)NC(=O)c1cccc(Br)c1`, -6.7%.
Under `COCCCNC(=O)C1CCN(c2nnc(C)c3c(C)n(-c4ccc(Cl)cc4)nc23)CC1` stands 14.3%; under `Cc1ccc(NC(=O)COc2ccccc2CO)cc1`, -0.999%.
With `Cc1cc(-c2ccc(C)c(S(=O)(=O)N(C)Cc3cnn(-c4ccccc4)c3)c2)on1`, the “% Inhibition @ 10 uM” value came to 0.879%.
With `CCCSCCCn1cnc2c3cc(Cl)ccc3nc-2c1O`, the “% Inhibition @ 10 uM” value is recorded as -3.52%.
On to `COc1ccc(CNC(=O)C2=CC(c3ccc(C)cc3)=NS(=O)(=O)N2C)cc1`, for which the “% Inhibition @ 10 uM” value came to 2.32%.
Under `COc1ccccc1Oc1coc2cc(OCC(N)=O)ccc2c1=O` stands -5.01%; under `Cc1onc(-c2ccccc2)c1C(=O)NC(C)CCc1ccccc1` (stereo not shown), 1.95%.
As to `CC(=O)c1cccc(NC(=O)CN(Cc2ccccc2)S(C)(=O)=O)c1`, the “% Inhibition @ 10 uM” value turned out to be 1.52%.
Next, `COc1ccc(NC(=S)c2sc(N3CCOCC3)nc2N2CCOCC2)cc1`: 3.49%; `COc1ccc2c(c1)c(=O)oc1cc3occ(C(C)(C)C)c3cc12`: -0.808%.
Under `O=C1CN(c2nc3ccc(Cl)cc3n3cnnc23)CC(=O)N1CCc1ccccc1` stands 4.33%; under `Cc1sc2c(c1C)c(=O)n(CCc1ccccc1)c(=O)n2Cc1ccccc1`, 10.7%; under `COc1ccc2nc3oc(C(=O)NC(C)CCc4ccccc4)cc3cc2c1` (stereo not shown), -3.35%.
Under `COC(=O)CCCC/C(=N\O)c1[nH]c(O)nc1C` stands -3.66%; under `CCc1ccc(CN(C(=O)c2oc3ccccc3c2C)C2CCS(=O)(=O)C2)cc1` (stereo not shown), -1.33%.
